From paper PMC8494430, “Development of a fluorogenic ADAMTS-7 substrate” (Journal of Enzyme Inhibition and Medicinal Chemistry, 2021)

Molecular target: T1, ADAMTS-5 (Homo sapiens, UniProt Q9UNA0)
T1 construct: made in house
T1 sequence (Q9UNA0 262-930): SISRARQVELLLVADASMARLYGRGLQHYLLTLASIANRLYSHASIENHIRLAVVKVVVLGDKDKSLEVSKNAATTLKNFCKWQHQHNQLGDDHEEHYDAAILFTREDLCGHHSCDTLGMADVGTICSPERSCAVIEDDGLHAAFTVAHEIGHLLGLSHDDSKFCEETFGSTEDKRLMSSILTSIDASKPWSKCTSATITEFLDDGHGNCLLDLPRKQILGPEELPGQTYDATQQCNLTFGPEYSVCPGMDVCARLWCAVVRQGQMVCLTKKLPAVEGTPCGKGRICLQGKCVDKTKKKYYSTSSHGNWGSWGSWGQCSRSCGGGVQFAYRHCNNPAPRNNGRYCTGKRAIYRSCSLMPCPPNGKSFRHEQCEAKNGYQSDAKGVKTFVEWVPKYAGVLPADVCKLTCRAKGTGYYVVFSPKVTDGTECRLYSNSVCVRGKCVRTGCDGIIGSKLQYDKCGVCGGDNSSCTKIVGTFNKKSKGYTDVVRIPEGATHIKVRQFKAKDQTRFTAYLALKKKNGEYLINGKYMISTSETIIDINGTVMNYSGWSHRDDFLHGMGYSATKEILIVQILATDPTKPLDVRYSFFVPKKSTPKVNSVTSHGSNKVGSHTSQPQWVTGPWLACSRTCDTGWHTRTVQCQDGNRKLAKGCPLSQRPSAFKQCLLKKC
Test: ADAMTS-5 FRET peptide inhibition assay
Type: biochemical
Details: Cheng-Prusoff, read-out: Ki app ADAMTS-5

Ki: 6.5 ± 0.1 nM
SMILES: O=C(NCCC[C@@H](NS(=O)(=O)c1ccc(OCc2ccc(F)cc2Cl)cc1)C(=O)NO)c1ccccc1 [EDV33]
